T1: human CD122 (IL-2Rβ) (human, UniProt P14784 27-240)
T1 construct: Receptor reagent used in SPR; also called interleukin 2 receptor beta
T1 sequence (looked up): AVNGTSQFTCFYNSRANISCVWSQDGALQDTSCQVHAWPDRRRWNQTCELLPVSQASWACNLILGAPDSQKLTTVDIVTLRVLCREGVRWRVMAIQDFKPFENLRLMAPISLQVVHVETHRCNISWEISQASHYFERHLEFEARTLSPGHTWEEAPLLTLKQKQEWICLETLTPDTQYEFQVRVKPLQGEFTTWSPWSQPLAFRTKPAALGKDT

T2: human CD25 (IL-2Rα) (human, UniProt P01589 22-240, limits assumed)
T2 construct: Receptor reagent used in SPR; also called interleukin 2 receptor alpha
T2 sequence (looked up): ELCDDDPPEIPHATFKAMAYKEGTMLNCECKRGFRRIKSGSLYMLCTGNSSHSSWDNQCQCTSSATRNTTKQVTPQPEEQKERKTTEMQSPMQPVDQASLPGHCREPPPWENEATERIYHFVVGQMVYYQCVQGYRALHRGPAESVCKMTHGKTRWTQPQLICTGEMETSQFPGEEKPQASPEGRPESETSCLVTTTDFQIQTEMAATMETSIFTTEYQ


How the values were obtained:
[1] = target: T1, human CD122 (IL-2Rβ); test: SPR; 1:1 binding fit
[2] = target: T2, human CD25 (IL-2Rα); test: SPR; steady state affinity

| Kd [1] [nM] | Kd [2] [nM] | Binder |
| --- | --- | --- |
| 5.02 | 32.2 | MDNA209-Fc-KFR (2:1:2) (Fc fusion, MDNA209, Fc and IL-4 mutein KFR (R121K, Y124F, S125R) in one chain; Made in CHO) APTSSSTKKTQLQLEHLRLDLEMILNGINNYKNPKLTRMLTFKFYMPKKATELKHLQCLEEELKPLEEVLNLAQSKNFHFDPRDVVSNINVFVLELKGSETTFMCEYADETATIVEFLNRWITFCTSIIRTLTGGGGSGGGGSGGGGS[omitted - human IgG1 Fc with changes]GGGSGGGGSGGGGSHKCDITLQEIIKTLNSLTEQKTLCTELTVTDIFAASKNTTEKETFCRAATVLRQFYSHHEKDTRCLGATAQQFHRHKQLIRFLKRLDRNLWGLAGLNSCPVKEANQSTLENFLERLKTIMKEKFRKCSS |
| 6.03 | 40.3 | MDNA209-Fc-RGA (2:1:2) (Fc fusion, MDNA209, Fc and IL-4 mutein RGA (K117R, T118V, R121Q, E122S, Y124W, S125F, S128G, S129A) in one chain; Made in CHO) APTSSSTKKTQLQLEHLRLDLEMILNGINNYKNPKLTRMLTFKFYMPKKATELKHLQCLEEELKPLEEVLNLAQSKNFHFDPRDVVSNINVFVLELKGSETTFMCEYADETATIVEFLNRWITFCTSIIRTLTGGGGSGGGGSGGGGS[omitted - human IgG1 Fc with changes]GGGSGGGGSGGGGSHKCDITLQEIIKTLNSLTEQKTLCTELTVTDIFAASKNTTEKETFCRAATVLRQFYSHHEKDTRCLGATAQQFHRHKQLIRFLKRLDRNLWGLAGLNSCPVKEANQSTLENFLERLRVIMQSKWFKCGA |

Reference: patent US20260226125A1 (MEDICENNA THERAPEUTICS, published 2026)
